Source: the supplement of paper PMC8728848
The list shows a part of the results.

What was measured:
Assay in all cases: glycan array binding signal (z-score within array); higher = stronger binding
Conditions in all cases: glycan notation: IUPAC condensed, linker removed
[1] = molecular target: Gal(b1-4)GlcNAc(b1-6)[Gal(b1-3)]GalNAc
In short: (§1)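 Arrays were curated from the Consortium for Functional Glycomics database, 3228 in total, and kept only where the protein sequence was available. Binding is expressed as a within-array Z-score. This score was averaged across arrays of the same protein sequence at different concentrations or buffers and across linkers, and negative values can be read as non-binding.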

Gal3S(b1-3)GalNAc = molecular target: Gal3S(b1-3)GalNAc
In short: as §1

Gal3S(b1-3)GlcNAc = molecular target: Gal3S(b1-3)GlcNAc
In short: as §1

[2] = molecular target: Gal3S(b1-3)[Fuc(a1-4)]GlcNAc
In short: as §1

Gal3S(b1-4)Glc = molecular target: Gal3S(b1-4)Glc
In short: as §1

Gal3S(b1-4)Glc6S = molecular target: Gal3S(b1-4)Glc6S
In short: as §1

Gal3S(b1-4)GlcNAc = molecular target: Gal3S(b1-4)GlcNAc
In short: as §1

Gal3S(b1-4)GlcNAc6S = molecular target: Gal3S(b1-4)GlcNAc6S
In short: as §1

[3] = molecular target: Gal3S(b1-4)[Fuc(a1-3)]Glc
In short: as §1

[4] = molecular target: Gal3S(b1-4)[Fuc(a1-3)]Glc6S
In short: as §1

Gal3S4S(b1-4)GlcNAc = molecular target: Gal3S4S(b1-4)GlcNAc
In short: as §1

Gal3S6S(b1-4)GlcNAc = molecular target: Gal3S6S(b1-4)GlcNAc
In short: as §1

Gal3S6S(b1-4)GlcNAc6S = molecular target: Gal3S6S(b1-4)GlcNAc6S
In short: as §1

Gal4S(b1-4)GlcNAc = molecular target: Gal4S(b1-4)GlcNAc
In short: as §1

Gal4S6S(b1-4)GlcNAc = molecular target: Gal4S6S(b1-4)GlcNAc
In short: as §1

Gal6S(b1-4)Glc = molecular target: Gal6S(b1-4)Glc
In short: as §1

Gal6S(b1-4)Glc6S = molecular target: Gal6S(b1-4)Glc6S
In short: as §1

Gal6S(b1-4)GlcNAc = molecular target: Gal6S(b1-4)GlcNAc
In short: as §1

Gal6S(b1-4)GlcNAc6S = molecular target: Gal6S(b1-4)GlcNAc6S
In short: as §1

GalNAc(a1-3)Gal = molecular target: GalNAc(a1-3)Gal
In short: as §1

GalNAc(a1-3)GalNAc = molecular target: GalNAc(a1-3)GalNAc
In short: as §1

[5] = molecular target: GalNAc(a1-3)GalNAc(a1-3)Gal(a1-4)Gal(b1-4)GlcNAc
In short: as §1

GalNAc(b1-3)Gal = molecular target: GalNAc(b1-3)Gal
In short: as §1

[6] = molecular target: GalNAc(b1-3)Gal(a1-4)Gal(b1-4)GlcNAc
In short: as §1

[7] = molecular target: GalNAc(b1-3)Gal(a1-4)Gal(b1-4)GlcNAc(b1-3)Gal(b1-4)Glc
In short: as §1

[8] = molecular target: GalNAc(b1-3)Gal(a1-6)Gal(b1-4)Glc
In short: as §1

GalNAc(b1-3)GalNAc = molecular target: GalNAc(b1-3)GalNAc
In short: as §1

GalNAc(b1-4)GlcNAc = molecular target: GalNAc(b1-4)GlcNAc
In short: as §1

[9] = molecular target: GalNAc(b1-4)GlcNAc(b1-2)Man(a1-3)[GalNAc(b1-4)GlcNAc(b1-2)Man(a1-6)]Man(b1-4)GlcNAc(b1-4)GlcNAc
In short: as §1

Glc(a1-4)Glc = molecular target: Glc(a1-4)Glc
In short: as §1

Glc(a1-6)Glc(a1-6)Glc = molecular target: Glc(a1-6)Glc(a1-6)Glc
In short: as §1

Glc(b1-4)Glc = molecular target: Glc(b1-4)Glc
In short: as §1

Glc(b1-6)Glc = molecular target: Glc(b1-6)Glc
In short: as §1

GlcA(b1-3)Gal = molecular target: GlcA(b1-3)Gal
In short: as §1

GlcA(b1-3)GlcNAc = molecular target: GlcA(b1-3)GlcNAc
In short: as §1

GlcA(b1-6)Gal = molecular target: GlcA(b1-6)Gal
In short: as §1

[10] = molecular target: GlcNAc(a1-3)Gal(b1-4)GlcNAc
In short: as §1

[11] = molecular target: GlcNAc(a1-4)Gal(b1-3)GlcNAc
In short: as §1

B1: SLP (Clostridium difficile), Q183M8 (protein)
chain: MATTGTQGYTVVKNDWKKAVKQLQDGLKDNSIGKITVSFNDGVVGEVAPKSANKKADRDAAAEKLYNLVNTQLDKLGDGDYVDFSVDYNLENKIITNQADAEAIVTKLNSLNEKTLIDIATKDTFGMVSKTQDSEGKNVAATKALKVKDVATFGLKSGGSEDTGYVVEMKAGAVEDKYGKVGDSTAGIAINLPSTGLEYAGKGTTIDFNKTLKVDVTGGSTPSAVAVSGFVTKDDTDLAKSGTINVRVINAKEESIDIDASSYTSAENLAKRYVFDPDEISEAYKAIVALQNDGIESNLVQLVNGKYQVIFYPEGKRLETKSLEHHHHHH
[1]
  glycan array binding signal (z-score): -0.171
Gal3S(b1-3)GalNAc
  glycan array binding signal (z-score): -0.183
Gal3S(b1-3)GlcNAc
  glycan array binding signal (z-score): -0.137
[2]
  glycan array binding signal (z-score): -0.132
Gal3S(b1-4)Glc
  glycan array binding signal (z-score): -0.171
Gal3S(b1-4)Glc6S
  glycan array binding signal (z-score): -0.12
Gal3S(b1-4)GlcNAc
  glycan array binding signal (z-score): -0.178
Gal3S(b1-4)GlcNAc6S
  glycan array binding signal (z-score): -0.155
[3]
  glycan array binding signal (z-score): -0.095
[4]
  glycan array binding signal (z-score): 0.027
Gal3S4S(b1-4)GlcNAc
  glycan array binding signal (z-score): -0.171
Gal3S6S(b1-4)GlcNAc
  glycan array binding signal (z-score): -0.152
Gal3S6S(b1-4)GlcNAc6S
  glycan array binding signal (z-score): -0.126
Gal4S(b1-4)GlcNAc
  glycan array binding signal (z-score): -0.188
Gal4S6S(b1-4)GlcNAc
  glycan array binding signal (z-score): -0.08
Gal6S(b1-4)Glc
  glycan array binding signal (z-score): -0.122
Gal6S(b1-4)Glc6S
  glycan array binding signal (z-score): -0.007
Gal6S(b1-4)GlcNAc
  glycan array binding signal (z-score): -0.138
Gal6S(b1-4)GlcNAc6S
  glycan array binding signal (z-score): -0.144
GalNAc(a1-3)Gal
  glycan array binding signal (z-score): -0.136
GalNAc(a1-3)GalNAc
  glycan array binding signal (z-score): -0.083
[5]
  glycan array binding signal (z-score): -0.145
GalNAc(b1-3)Gal
  glycan array binding signal (z-score): -0.194
[6]
  glycan array binding signal (z-score): -0.187
[7]
  glycan array binding signal (z-score): -0.149
[8]
  glycan array binding signal (z-score): -0.194
GalNAc(b1-3)GalNAc
  glycan array binding signal (z-score): -0.142
GalNAc(b1-4)GlcNAc
  glycan array binding signal (z-score): -0.188
[9]
  glycan array binding signal (z-score): 6.19
Glc(a1-4)Glc
  glycan array binding signal (z-score): -0.211
Glc(a1-6)Glc(a1-6)Glc
  glycan array binding signal (z-score): -0.147
Glc(b1-4)Glc
  glycan array binding signal (z-score): -0.134
Glc(b1-6)Glc
  glycan array binding signal (z-score): -0.128
GlcA(b1-3)Gal
  glycan array binding signal (z-score): -0.135
GlcA(b1-3)GlcNAc
  glycan array binding signal (z-score): 0.014
GlcA(b1-6)Gal
  glycan array binding signal (z-score): -0.152
[10]
  glycan array binding signal (z-score): -0.169
[11]
  glycan array binding signal (z-score): -0.196
